# Measured values published in the supplement of paper PMC3334620.
# In all, about 33,000 sequences were measured (“E-score (-0.5 to 0.5)”: median about -0.021, highest 2% from about 0.32 on). The list shows a part of the results.
# Target: T1, Zap1 (UniProt P47043)
# T1 sequence: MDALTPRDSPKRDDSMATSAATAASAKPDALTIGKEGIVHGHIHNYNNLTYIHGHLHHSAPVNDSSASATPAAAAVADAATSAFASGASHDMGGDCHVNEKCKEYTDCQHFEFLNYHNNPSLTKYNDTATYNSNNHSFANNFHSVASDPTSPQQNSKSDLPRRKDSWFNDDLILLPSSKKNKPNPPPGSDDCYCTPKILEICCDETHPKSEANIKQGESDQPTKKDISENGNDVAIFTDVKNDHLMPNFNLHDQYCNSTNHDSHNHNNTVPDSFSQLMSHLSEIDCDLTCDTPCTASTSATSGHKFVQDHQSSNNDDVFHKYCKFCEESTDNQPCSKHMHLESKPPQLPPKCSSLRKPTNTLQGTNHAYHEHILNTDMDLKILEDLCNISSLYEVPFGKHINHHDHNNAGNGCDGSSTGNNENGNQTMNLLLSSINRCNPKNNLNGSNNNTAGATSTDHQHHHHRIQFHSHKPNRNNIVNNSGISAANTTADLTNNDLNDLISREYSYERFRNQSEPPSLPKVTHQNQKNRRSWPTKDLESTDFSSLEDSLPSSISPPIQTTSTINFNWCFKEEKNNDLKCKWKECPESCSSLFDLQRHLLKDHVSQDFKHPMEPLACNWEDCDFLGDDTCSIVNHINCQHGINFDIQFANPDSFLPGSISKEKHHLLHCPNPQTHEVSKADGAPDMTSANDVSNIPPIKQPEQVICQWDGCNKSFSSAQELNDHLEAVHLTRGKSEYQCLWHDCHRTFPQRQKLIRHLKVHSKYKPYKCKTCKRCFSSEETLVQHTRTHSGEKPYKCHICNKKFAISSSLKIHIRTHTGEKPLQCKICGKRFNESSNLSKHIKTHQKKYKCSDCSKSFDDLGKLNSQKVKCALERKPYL
# Experiment: PBM E-score (8-mer binding enrichment) (E-score (-0.5 to 0.5)); higher = stronger / more preferred TF binding; most listed sequences are background and not binding sites
# Details: protein concentration: 200 nM; construct: GST-full length
# In short: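 Bound GST-tagged yeast transcription factors, applied at about 100-200 nM to double-stranded universal all-10-mer Agilent arrays, were detected with fluorescent anti-GST. Scans were normalised with masliner. A modified Wilcoxon-Mann-Whitney statistic, the E-score, was assigned to each ungapped eight-base word pooled with its reverse complement by the Universal PBM Analysis Suite.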
row,Sequence,PBM E-score
1,AAGCGATT,-0.125
2,ATTCCAGG,0.00142
3,AACCCCAA,0.377
4,ACCTGTAC,0.193
5,AGACCTCG,0.225
6,CCCGTCCA,-0.211
7,GATAAGTA,0.114
8,CCCGCATC,-0.137
9,GATCCGCA,-0.163
10,CGAACGAC,-0.12
11,CCTGACAA,-0.00831
12,TACGGCAA,-0.17
13,AGGCTGTC,-0.202
14,CCAGGGTC,0.19
15,AAATATTA,0.133
16,ACGAGGTA,0.244
17,CCGTCGAA,-0.0856
18,ATCAATCC,-0.0813
19,CAACAATG,0.00437
20,CGTTCCCA,-0.125
21,CCGATTGC,-0.0985
22,CATATTTC,0.0387
23,GTGGACAC,0.109
24,CCCCATAG,0.201
25,ATAGTCCA,0.103

row,Sequence,PBM E-score
1,AGCATCAG,-0.184
2,CTATAGGC,-0.0315
3,CTTGAAAG,0.11
4,CCACCGAG,-0.0392
5,GCGCGAGC,-0.141
6,ACACTATG,-0.106
7,GGGCAACC,0.0413
8,ACTTGTAT,0.0311
9,AGCTCAAG,-0.123
10,CCGCAAAC,0.231
11,TACCCAAA,0.312
12,CTCACTCC,-0.225
13,GGGGTGAC,0.337
14,CTGAGTTC,0.0158
15,GCACGCGA,-0.0965
16,CTAAGTCC,-0.137
17,CAGAACGC,-0.139
18,GAACCCGA,0.0725
19,GCACTACC,0.187
20,AAGCAGCG,-0.00408
21,ACAGTCGA,-0.115
22,AGGTAACA,0.344
23,GAATGAAC,0.0344
24,GCAATCCC,0.00865
25,AAAAGAAA,0.0969

row,Sequence,PBM E-score
1,CGCGAACC,0.0111
2,ATTCCTGC,-0.0866
3,AAGTTTTC,0.155
4,CGACAAAG,0.0303
5,CTGTTCTC,-0.244
6,GAGTCTCC,-0.179
7,CCCTCGGC,-0.137
8,CAAATCTA,0.00251
9,GCAAACAC,-0.107
10,ACGCAAAG,-0.0402
11,AAAGTCCT,0.0317
12,ACGACTTG,-0.209
13,GTGTCTAA,0.155
14,AAGGGAGT,-0.213
15,CATGAAGA,0.0464
16,GTCCTATA,-0.189
17,AGACGAAG,-0.131
18,AACGTGGA,-0.0402
19,CGACGATA,0.0164
20,AAATGCAA,0.115
21,CGCGTATC,0.0418
22,AGGTAATC,0.189
23,ATTCCGGG,0.0348
24,AGTTCTGA,0.0719
25,AAAGGGCA,-0.0435

row,Sequence,PBM E-score
1,TGGGAACA,-0.173
2,CAACTTCA,-0.00642
3,ATAAGACA,-0.0362
4,CTGCTTAC,-0.0264
5,AGCCCACG,-0.185
6,ACAACAGC,-0.00904
7,CGAGAGAG,-0.0422
8,CGAACGAG,-0.164
9,AACATTCA,-0.0262
10,GGCGGCCC,-0.25
11,CCATTAGG,0.0328
12,GTCGTTGA,-0.12
13,AATACGAC,-0.05
14,AGCGGCTC,-0.122
15,AATCTGGA,-0.0459
16,GGCCATAA,0.252
17,AATACATC,-0.146
18,CCGGATAC,-0.0506
19,ACTTACTA,-0.0941
20,CTTTCTAA,0.0907
21,ATACCCCA,0.383
22,ATAATCTG,0.0985
23,AGGATCAA,0.166
24,ACCCCACC,0.419
25,CAAGATCA,0.116

row,Sequence,PBM E-score
1,AAATCCCT,-0.132
2,CGACTCAG,-0.102
3,GCAAGGTA,0.265
4,CAGCCCCA,-0.0717
5,CCTATGAA,-0.162
6,GGATACAA,0.0969
7,TGGGGACA,0.0817
8,AGACATTA,0.0601
9,GAGTCTCA,-0.118
10,ATTGTGAA,0.122
11,CAAAGGCG,-0.279
12,CCTTAAAC,0.143
13,CGGACCGA,-0.0404
14,ACCTCGAG,0.349
15,ACCTCACA,0.241
16,CACCGCGG,0.176
17,CATTATTA,0.167
18,AGCACGGA,-0.261
19,CCCTGGAA,-0.22
20,TGGATAAA,0.0922
21,ACGTATCC,-0.239
22,ACACACCC,0.0972
23,CGTTGTCC,0.0918
24,CCCGGGAC,0.0471
25,TCACAAAA,0.157

row,Sequence,PBM E-score
1,CTTGTGTC,0.0569
2,CCTGCCGA,-0.136
3,GTACACTA,-0.0568
4,TCCATAGA,-0.102
5,CTATGGCC,-0.0146
6,CCCGAGGC,-0.0737
7,CCAACTCG,0.122
8,ACGGGTTA,0.408
9,ATGCCAAG,-0.0511
10,TAGTGTGA,0.0007
11,AGTCGCGA,0.113
12,AGCTATCC,-0.263
13,ACAAATGG,0.0107
14,CTGTACTA,0.0369
15,CTACACGC,-0.298
16,AAGTTACA,0.169
17,GATTAAAA,0.184
18,CACATGGC,0.0746
19,AGAAGACC,0.187
20,CGTAACTC,0.168
21,AGGTTCAT,0.181
22,CATACCAC,0.124
23,CCGCGTGC,-0.17
24,CATACACA,0.0179
25,AATTAAAA,0.162

row,Sequence,PBM E-score
1,ACGTTTAC,-0.083
2,ATTCCCGA,-0.0919
3,TGTTTTAA,0.208
4,CGAATGGA,0.0883
5,AATGAATG,0.0096
6,CTAAAACA,0.0791
7,AGACTCAA,-0.037
8,CATTAGAG,0.125
9,CTTAGAAC,0.135
10,CCTCGGTC,-0.0963
11,ACCCACCA,0.177
12,CATCCGGA,-0.17
13,ATGTCGAA,-0.00735
14,GGGGCGGA,-0.0553
15,TACACTCA,0.0358
16,AGTAGTCC,-0.177
17,CTCTAGTA,0.0128
18,AATTCTTC,-0.00929
19,GCTCGTGA,-0.154
20,ACCACGAT,0.157
21,CTCTAACA,0.0644
22,AAGTGGCG,-0.0995
23,CTGAAGGA,-0.0272
24,CATTCTGG,-0.0234
25,CATTACAC,0.0554

row,Sequence,PBM E-score
1,GGTTCTAA,0.231
2,CGATATGC,-0.0505
3,CCTCTTTC,-0.127
4,GTCCACCA,0.0384
5,GCGTGAGC,-0.0246
6,CAGTTTGG,-0.0899
7,ATCCACCG,-0.125
8,CCCTTGAA,0.102
9,TAAGGAGA,-0.113
10,ACCGCTAT,0.137
11,CCACCTGG,0.0233
12,ATTTGTGC,0.108
13,ATGTTTCG,0.118
14,CGTGGTAA,0.0908
15,GCAATGCA,-0.0995
16,AGAGCCTG,-0.232
17,ACTGGTTG,0.188
18,AGCCGATC,-0.127
19,CAGATACC,0.1
20,CCTATCAG,-0.0469
21,ATCAACGG,0.127
22,AGTCAGAC,0.00907
23,GAAAATGC,-0.0932
24,AGACCGCG,0.153
25,ACTCGTAG,-0.174

row,Sequence,PBM E-score
1,TCTAAGAA,0.203
2,ACAATTAC,0.0448
3,GCCAGCGC,-0.361
4,AACCCCTA,0.389
5,ATACTTGA,-0.0537
6,GCCGGGCA,-0.265
7,AGAGATAG,-0.057
8,ACTTTGGG,-0.0129
9,AAGGTACG,0.0328
10,CAGACTGC,-0.211
11,GTGAATGA,0.136
12,ACCCTTTA,0.415
13,AGCCCCCC,-0.286
14,ACGGCAAA,-0.127
15,CAATATCG,-0.06
16,ATTATAAG,0.151
17,GCTTAGGA,-0.205
18,GAGGGCAC,-0.195
19,CGGAGCCA,-0.128
